Experimental data as given in article PMC10017364.
These are yes or no findings as the source states them, for the method shown. In cells and extracts the contact can be indirect. Some binding calls cover weakened binding; strength is not graded here.

Chains of the proteins cited; added tags and fusions are not shown. Residues count along the entry.
UniProt P08138, residues 29-427: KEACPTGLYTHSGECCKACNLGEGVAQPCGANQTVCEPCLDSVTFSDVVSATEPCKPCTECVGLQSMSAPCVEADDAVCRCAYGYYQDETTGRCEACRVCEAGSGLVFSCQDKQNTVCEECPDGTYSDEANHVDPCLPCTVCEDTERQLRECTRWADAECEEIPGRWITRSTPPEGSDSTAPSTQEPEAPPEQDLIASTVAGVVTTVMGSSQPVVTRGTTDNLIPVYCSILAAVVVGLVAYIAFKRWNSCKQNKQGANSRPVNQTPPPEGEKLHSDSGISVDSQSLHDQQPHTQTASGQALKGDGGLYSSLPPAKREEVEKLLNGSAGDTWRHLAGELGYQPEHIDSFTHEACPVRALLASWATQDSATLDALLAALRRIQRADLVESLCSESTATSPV
UniProt O43747: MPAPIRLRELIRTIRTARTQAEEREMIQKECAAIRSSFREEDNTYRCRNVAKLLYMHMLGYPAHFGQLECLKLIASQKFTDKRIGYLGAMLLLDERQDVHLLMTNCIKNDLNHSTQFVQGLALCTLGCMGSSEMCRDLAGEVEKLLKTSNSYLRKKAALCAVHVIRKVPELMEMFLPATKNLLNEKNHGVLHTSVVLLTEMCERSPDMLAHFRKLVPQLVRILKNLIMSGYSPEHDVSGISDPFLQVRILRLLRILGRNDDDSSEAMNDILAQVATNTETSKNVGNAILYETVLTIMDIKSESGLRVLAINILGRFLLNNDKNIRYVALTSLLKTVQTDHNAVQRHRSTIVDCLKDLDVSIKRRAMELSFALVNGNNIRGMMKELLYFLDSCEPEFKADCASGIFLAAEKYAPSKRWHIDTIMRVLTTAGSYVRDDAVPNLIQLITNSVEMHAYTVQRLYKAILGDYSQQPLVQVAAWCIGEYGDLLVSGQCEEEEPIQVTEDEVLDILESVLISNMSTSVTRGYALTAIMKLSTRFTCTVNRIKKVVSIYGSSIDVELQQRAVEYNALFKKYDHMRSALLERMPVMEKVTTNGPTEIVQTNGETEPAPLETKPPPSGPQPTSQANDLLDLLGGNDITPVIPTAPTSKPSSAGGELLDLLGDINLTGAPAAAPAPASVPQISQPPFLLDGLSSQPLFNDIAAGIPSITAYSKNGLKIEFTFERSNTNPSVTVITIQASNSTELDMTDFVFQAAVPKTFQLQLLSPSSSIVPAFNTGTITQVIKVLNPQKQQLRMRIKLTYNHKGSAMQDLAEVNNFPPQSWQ

Columns and labels:
[1] = target: fragment containing the cytosolic domain of EGFR (EGFR^669-1210-EGFP-Bio) (human) (UniProt P00533); assay: pull-down; streptavidin pull-down: lysates of HEK293T cells coexpressing HA-BirA and the EGFP-Bio-tagged EGFR construct incubated with Dynabeads M-280 Streptavidin overnight at 4 °C; lysis buffer 110 mM potassium acetate, 20 mM Hepes pH 7.2, 2 mM magnesium acetate, 0.5% Triton X-100, 1 mM DTT; bound proteins by immunoblotting
[2] = target: N-terminal fragment of EGFR containing the transmembrane domain (EGFR^1-668-EGFP-Bio) (human) (UniProt P00533); assay: as above
[3] = target: cytosolic tail of EGFR (EGFR^969-1210-EGFP-Bio) (human) (UniProt P00533); assay: as above
[4] = target: EGFR bearing an EGFP and a biotin acceptor peptide (Bio tag) at its C-terminus (EGFR-EGFP-Bio), full length (human) (UniProt P00533); assay: as above
[5] = target: EGFR (Y1172A)-EGFP-Bio (human) (UniProt P00533); assay: as above
[6] = target: FLAG-tagged p75 (p75-FLAG) (UniProt P08138); assay: co-IP; lysates of HEK293T cells expressing FLAG-tagged proteins incubated with anti-FLAG M2 agarose beads overnight at 4 °C; eluted with FLAG peptides; bound proteins by immunoblotting
[7] = target: HA- and FLAG-tagged EGFR (HA-EGFR-FLAG) (human) (UniProt P00533); assay: as above

binding [1]: binds
binding [2]: binds weakly
binding [3]: binds
binding [4]: binds
binding [5]: binds
binding [6]: no binding
binding [7]: binds
Substance: gamma subunit of AP-1 (AP1γ1) (from UniProt O43747 1-822)
